Hit rate of the full screen: of about 220,000 compounds, about 5,700 (2.6%) were called active. Inconclusive means that the source gave no clear call. Such entries were picked first, then a sample of the others. Calls come from the whole dose curve; as a rule, active = well fitted inhibition curve with a large enough effect; inconclusive = small, poorly fitted or top-dose-only effect; inactive = no such curve, though single readings can be large or run the other way. Where the call is inconclusive, the potency comes from a doubtful curve fit.
Molecular target: Lysine-specific demethylase 5B (Homo sapiens) (UniProt Q9UGL1)
Sequence of UniProt Q9UGL1 (Q9UGL1 whole entry, looked up): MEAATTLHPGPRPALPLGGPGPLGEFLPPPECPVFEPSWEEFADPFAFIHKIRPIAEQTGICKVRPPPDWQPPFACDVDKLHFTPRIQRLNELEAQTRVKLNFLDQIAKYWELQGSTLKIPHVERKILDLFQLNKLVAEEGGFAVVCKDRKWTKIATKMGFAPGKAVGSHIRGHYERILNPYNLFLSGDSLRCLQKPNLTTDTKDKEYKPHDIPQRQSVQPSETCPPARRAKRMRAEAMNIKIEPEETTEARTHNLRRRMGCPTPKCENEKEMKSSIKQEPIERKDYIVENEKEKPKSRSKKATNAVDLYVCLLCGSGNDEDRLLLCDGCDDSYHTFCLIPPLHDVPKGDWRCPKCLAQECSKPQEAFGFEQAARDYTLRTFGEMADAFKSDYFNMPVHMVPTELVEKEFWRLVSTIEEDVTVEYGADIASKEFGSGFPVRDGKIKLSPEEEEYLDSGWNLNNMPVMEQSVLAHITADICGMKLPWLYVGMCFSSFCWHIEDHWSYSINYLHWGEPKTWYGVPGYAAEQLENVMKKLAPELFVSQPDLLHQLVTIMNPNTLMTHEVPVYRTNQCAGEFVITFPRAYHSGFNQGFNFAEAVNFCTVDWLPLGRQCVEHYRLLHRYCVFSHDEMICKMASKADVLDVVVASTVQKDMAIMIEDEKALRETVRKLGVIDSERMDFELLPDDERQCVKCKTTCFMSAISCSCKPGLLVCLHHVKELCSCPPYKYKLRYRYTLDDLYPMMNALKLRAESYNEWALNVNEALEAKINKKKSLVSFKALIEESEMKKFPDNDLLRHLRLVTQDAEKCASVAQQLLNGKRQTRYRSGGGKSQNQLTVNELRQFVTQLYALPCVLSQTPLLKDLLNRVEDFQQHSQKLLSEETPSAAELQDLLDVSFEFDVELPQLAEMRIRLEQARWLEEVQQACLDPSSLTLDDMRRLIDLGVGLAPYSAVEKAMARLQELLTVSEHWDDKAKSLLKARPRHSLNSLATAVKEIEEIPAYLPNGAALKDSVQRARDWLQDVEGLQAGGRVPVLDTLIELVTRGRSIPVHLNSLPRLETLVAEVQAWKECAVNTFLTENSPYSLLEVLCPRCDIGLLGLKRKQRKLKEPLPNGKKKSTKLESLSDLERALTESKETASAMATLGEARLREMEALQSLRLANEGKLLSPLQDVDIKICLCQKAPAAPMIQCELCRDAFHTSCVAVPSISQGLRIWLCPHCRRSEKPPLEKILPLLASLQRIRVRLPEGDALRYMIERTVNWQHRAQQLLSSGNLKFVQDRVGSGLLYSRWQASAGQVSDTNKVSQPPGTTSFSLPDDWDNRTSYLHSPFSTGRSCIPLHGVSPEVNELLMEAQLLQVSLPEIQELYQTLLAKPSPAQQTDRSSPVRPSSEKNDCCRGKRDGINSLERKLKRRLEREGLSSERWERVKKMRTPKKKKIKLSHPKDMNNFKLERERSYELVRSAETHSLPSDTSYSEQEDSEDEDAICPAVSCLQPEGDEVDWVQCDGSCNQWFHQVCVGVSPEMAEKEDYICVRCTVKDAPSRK
Experiment: Primary screen for KDM5B Histone Demethylases FDH-coupled qHTS; note: nearly all actives have a fitted effect of over 70% in size; for activity change, negative = inhibition: 0% is about no effect
Settings: FDH-coupled NADH fluorescence (FDH is formaldehyde dehydrogenase); activity change, negative = inhibition: at 57.7 µM (top of the series) unless noted
How it was run: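 Coupled FDH/NAD⁺ fluorescence readout. KDM5BΔAP 200 nM final; compound titration, 10 min RT preincubation; substrate mix 12.5 µM H3K4me3, 25 µM 2-OG, 50 µM Fe(II), 100 µM ascorbate, 0.25 mM NAD⁺, 0.25 U/mL FDH; ΔRFU over 30 min.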
Potency is the fitted concentration of half-maximal effect; tags give direction and shape of the fitted curve.

**Q.** `CCNC(=O)CC1COCCN1C(=O)c1csc(-c2cccs2)n1` (stereo unspecified) was tested. Which Potency did it give?
**A.** active: 22.4 µM

**Q.** With `CCN1c2cc(C(=O)NCc3cccs3)ccc2C(=O)N2CCCCC21` (stereo unspecified) as the compound, how does the Potency read?
**A.** inconclusive: 22.4 µM [inhibitor, partial curve, poor fit]

**Q.** `C=C(C)COc1ccc2c(C)c(CC(=O)Nc3ccc4c(c3)OCO4)c(=O)oc2c1` was tested. Which Potency did it give?
**A.** inactive

**Q.** Which Potency does the source give for `Cc1ccc(C23CC4CC(CC(C(=O)O)(C4)C2)C3)cc1C` here?
**A.** inactive

**Q.** `N#C/C(=C/c1ccoc1)c1nc(-c2ccc(C3CCCCC3)cc2)cs1` was tested. Which Potency did it give?
**A.** inactive

**Q.** How did the Potency turn out when `Cc1ccc(F)cc1NC(=O)c1cc(-c2ccc[nH]2)n[nH]1` was run?
**A.** inactive

**Q.** `O=C(CC1(O)C(=O)N(CCc2ccccc2)c2ccc(Br)cc21)c1ccccc1O` (stereo unspecified) was tested. Which activity change, negative = inhibition did it give?
**A.** inconclusive: -31.9% [inhibitor]

**Q.** For `CC(NC(=O)CCCC(=O)O)C1CC2CCC1C2` (stereo unspecified), which Potency is on record?
**A.** inactive

**Q.** For `CCC(C)(C)NC(=O)/C=C/c1cc(OC)c(OC)c(OC)c1`, which Potency is on record?
**A.** inconclusive: 22.4 µM [inhibitor, partial curve, poor fit]

**Q.** `CCc1c(C)sc(NC(=O)/C=C/c2c(Cl)cccc2Cl)c1C#N` was tested. Which Potency did it give?
**A.** inactive

**Q.** How did the Potency turn out when `CCN1CC2(CCN(C(=O)c3cc4c(nc3OC)CCC4)CC2)OC1=O` was run?
**A.** inconclusive: 39.8 µM [inhibitor, single point]

**Q.** With `Cc1nocc1C(=O)N1CCCn2ccnc2C1c1cnn(C)c1` (stereo unspecified) as the compound, how does the Potency read?
**A.** inactive

**Q.** Which Potency does the source give for `CCN(CC)Cc1cnc2c(C(=O)NC3CCCN(C(C)=O)C3)cnn2c1` (stereo unspecified) here?
**A.** inconclusive: 31.6 µM [inhibitor, single point]

**Q.** With `CCOCCn1c(-n2nc(C)cc2C)nc2c1c(=O)n(CCOC)c(=O)n2C` as the compound, how does the Potency read?
**A.** inactive

**Q.** How did the Potency turn out when `COC(=O)c1ccc(Cl)cc1NC(=O)N1CC(C)Oc2ccc(C)cc21` (stereo unspecified) was run?
**A.** inconclusive: 10 µM [inhibitor, partial curve, poor fit]

**Q.** Which Potency does the source give for `COc1ccc(-c2ccc3c(c2)C(=O)N2CC[C@H](NC(=O)COCC(=O)O)[C@H]2C(=O)N3)c(OC)c1` here?
**A.** inconclusive: 22.4 µM [inhibitor, partial curve, poor fit]

**Q.** `COc1ccc(CNc2ncnc3c2c(-c2ccccc2)cn3-c2ccccc2)cc1` was tested. Which Potency did it give?
**A.** inconclusive: 35.5 µM [inhibitor, partial curve, poor fit]

**Q.** For `CCN(CC)S(=O)(=O)c1ccc(C(=O)N=c2sc3cccc(OC)c3n2C)cc1`, which Potency is on record?
**A.** inconclusive: 31.6 µM [inhibitor, partial curve, poor fit]

**Q.** For `O=C1CC(c2ccccc2)N(Cc2ccncc2)CCCN(C(=O)NCc2ccc(F)cc2)CCN1` (stereo unspecified), which Potency is on record?
**A.** inactive

**Q.** `COc1ccc(C(=O)/C(C#N)=C\c2ccc(Cl)c(Cl)c2)cc1` was tested. Which Potency did it give?
**A.** inactive

**Q.** With `O=C(N[C@H]1CCN2C(=O)c3cc(-c4ccc5c(c4)OCO5)ccc3NC(=O)[C@H]12)c1cccs1` as the compound, how does the Potency read?
**A.** inconclusive: 28.2 µM [inhibitor, single point]

**Q.** `O=C(CN1CCCC1c1ccc2c(c1)OCCCO2)Nc1cc(Cl)ccc1F` (stereo unspecified) was tested. Which Potency did it give?
**A.** inactive

**Q.** With `Cc1ccc(S(=O)(=O)c2nc(-c3ccc(Cl)cc3)oc2N2CCCCCC2)cc1` as the compound, how does the Potency read?
**A.** inconclusive: 25.1 µM [inhibitor, single point]

**Q.** `Cc1c(-c2cccc(NC(=O)C(C)(C)C)c2)nc2ncccn12` was tested. Which Potency did it give?
**A.** inconclusive: 7.08 µM [inhibitor, partial curve, poor fit]

**Q.** `Cc1ccc(-c2nc(SCc3ccc(Br)cc3)n3[nH]c(=O)cc3n2)cc1` was tested. Which Potency did it give?
**A.** inconclusive: 31.6 µM [inhibitor, partial curve, poor fit]

**Q.** With `CCOC(=O)c1ccc(Oc2c(C)oc3cc(OCC(=O)c4ccc(OC)cc4)ccc3c2=O)cc1` as the compound, how does the Potency read?
**A.** inconclusive: 17.8 µM [inhibitor, partial curve, poor fit]

**Q.** `c1ccc(N2CCN(Cc3cc(CC4(NCc5cnc6ccccc6c5)COC4)no3)CC2)cc1` was tested. Which Potency did it give?
**A.** inconclusive: 31.6 µM [inhibitor, partial curve]

**Q.** Which Potency does the source give for `Cc1ccccc1CC(=O)N(C)Cc1ccsc1` here?
**A.** inactive

**Q.** With `Cc1nnc(SCC(=O)NCc2ccccc2F)c2nn(-c3ccc(Cl)cc3)c(C)c12` as the compound, how does the Potency read?
**A.** inconclusive: 15.8 µM [inhibitor, partial curve, poor fit]

**Q.** For `COc1ccccc1-c1nc(C(=O)NCc2ccc3c(c2)OCO3)n2ccncc12`, which Potency is on record?
**A.** active: 31.6 µM

**Q.** How did the Potency turn out when `COCCc1nn2c(=O)cc(COC(=O)c3ccc(C(C)(C)C)cc3)nc2s1` was run?
**A.** inconclusive: 31.6 µM [inhibitor, single point]

**Q.** Which Potency does the source give for `CC1(C(=O)Nc2ccccc2)CCc2cnc(N3CCOCC3)nc21` (stereo unspecified) here?
**A.** active: 35.5 µM

**Q.** With `Cc1cccc(N2C(=O)CCSC23C(=O)N(Cc2ccc(F)cc2)c2ccccc23)c1` (stereo unspecified) as the compound, how does the Potency read?
**A.** inconclusive: 10 µM [inhibitor, partial curve, poor fit]

**Q.** How did the Potency turn out when `Cc1ccc(-c2c(C(=O)NCCc3ccc(Cl)cc3)oc(=O)c3ccccc23)cc1` was run?
**A.** inconclusive: 0.891 µM [inhibitor, full curve, poor fit]

**Q.** Which Potency does the source give for `CCOC(=O)c1c(C)[nH]c(C(=O)Nc2cccc(S(=O)(=O)N(C)C)c2)c1C` here?
**A.** inactive

**Q.** Which Potency does the source give for `Cc1ccc(/C=C(\C#N)C(=O)NC2CCCCC2)o1` here?
**A.** inactive

**Q.** `COCCCn1c(C)cnc1C1CCN(C(=O)NC2CCCCC2)C1` (stereo unspecified) was tested. Which Potency did it give?
**A.** inactive

**Q.** For `CCCCCCCCCCCC(=O)N/N=C\CC(C)C`, which Potency is on record?
**A.** inactive

**Q.** Which Potency does the source give for `CN(CC(O)CO)c1ccc(C(=O)N2CCC(Oc3cccnc3)CC2)cn1` (stereo unspecified) here?
**A.** inconclusive: 22.4 µM [inhibitor, single point]

**Q.** Which Potency does the source give for `COc1cccc(-c2noc(-c3ccc(NCCn4cccn4)nc3)n2)c1OC` here?
**A.** active: 25.1 µM

**Q.** `Cc1ccccc1OCCN(C)C(=O)c1cc(=O)c2ccccc2o1` was tested. Which Potency did it give?
**A.** inactive

**Q.** `Cc1nc(N2CCCC2)cc(N2CCN(C(=O)c3ccccc3C(F)(F)F)CC2)n1` was tested. Which Potency did it give?
**A.** inactive

**Q.** `Brc1ccc2oc3c(Nc4ccccc4)ncnc3c2c1` was tested. Which Potency did it give?
**A.** inactive

**Q.** Which Potency does the source give for `COc1ccc(-c2nnc(SCC(=O)Nc3ccc(F)cc3)s2)cc1` here?
**A.** inconclusive: 31.6 µM [inhibitor, partial curve, poor fit]

**Q.** For `COc1cccc([S+](=O)([O-])N2CCNc3cnc(Nc4cccnc4)nc3C2)c1`, which Potency is on record?
**A.** inconclusive: 28.2 µM [inhibitor, partial curve]

**Q.** How did the Potency turn out when `O=c1c2sc3ccccc3c2n(Cc2ccccc2F)c(=O)n1CCc1ccccc1` was run?
**A.** inconclusive: 5.01 µM [inhibitor, partial curve, poor fit]

**Q.** Which Potency does the source give for `c1ccc(-c2noc(-c3ccn4c(CN5CCCCCC5)nnc4c3)n2)cc1` here?
**A.** inconclusive: 12.6 µM [inhibitor, partial curve, poor fit]

**Q.** `CCN(CC)S(=O)(=O)c1ccc2c(c1)NC(=O)C1CCCN21` (stereo unspecified) was tested. Which Potency did it give?
**A.** inconclusive: 39.8 µM [inhibitor, partial curve, poor fit]

**Q.** How did the Potency turn out when `CC(Cc1cnccn1)NC(=O)c1csc2nc(-c3cccc(C(F)(F)F)c3)cn12` (stereo unspecified) was run?
**A.** inactive

**Q.** With `Cc1cc(C(=O)N2CCN(S(=O)(=O)c3ccc(Cl)cc3)CC2)on1` as the compound, how does the Potency read?
**A.** inactive

**Q.** `CCN1C(=O)C(O)(CC(=O)c2cc(C)c(C)cc2C)c2ccccc21` (stereo unspecified) was tested. Which Potency did it give?
**A.** inactive

**Q.** For `COc1ccc2c(c1)N(C(=O)Nc1ccc(Cl)cc1)C(C)(C)C=C2C`, which Potency is on record?
**A.** inconclusive: 22.4 µM [inhibitor, partial curve, poor fit]

**Q.** With `O=C(Nc1nn(-c2cccc(F)c2)c2cccc(N3CCOC3=O)c12)C1CCC1` as the compound, how does the Potency read?
**A.** active: 28.2 µM

**Q.** How did the Potency turn out when `CC(C)(C)OC(=O)N1CCC(c2c(C(=O)NCc3ccco3)cnn2-c2ccc(F)cc2)CC1` was run?
**A.** inconclusive: 15.8 µM [inhibitor, partial curve, poor fit]

**Q.** For `CCC1CCCCN1C(=O)CNCC1CCCO1` (stereo unspecified), which Potency is on record?
**A.** inconclusive: 14.1 µM [inhibitor, partial curve, poor fit]

**Q.** For `CN1CC(=O)N(C2CCC2)Cc2c(NC3CCNCC3)ncnc21`, which Potency is on record?
**A.** inconclusive: 50.1 µM [inhibitor, partial curve]

**Q.** With `CCN(c1ccc(Cl)cc1)S(=O)(=O)c1nnc(NC(=O)C(C)C)s1` as the compound, how does the Potency read?
**A.** inactive

**Q.** `Cc1ccc(S(=O)(=O)c2c(C)nn(-c3ccccc3)c2OC(=O)c2ccccc2F)cc1` was tested. Which Potency did it give?
**A.** inconclusive: 17.8 µM [inhibitor, partial curve, poor fit]

**Q.** With `CN(C)CCCNc1ncnc2c1cnn2Cc1ccccc1Cl` as the compound, how does the Potency read?
**A.** inconclusive: 20 µM [inhibitor, single point]

**Q.** Which Potency does the source give for `O=C(Cn1cnc2cc(F)ccc2c1=O)N(Cc1cccs1)c1ccc2c(c1)OCCO2` here?
**A.** inactive

**Q.** With `CN(C)c1ccc(/C=N/NC(=O)c2ccc(NC(=O)c3ccccc3)cc2)cc1` as the compound, how does the Potency read?
**A.** inconclusive: 39.8 µM [inhibitor, single point]

**Q.** For `CCc1nc2nccc(-c3ccsc3)n2n1`, which Potency is on record?
**A.** active: 25.1 µM

**Q.** For `CCN(CC)c1ccc(NC(=O)C2COc3ccc(OC)cc3C2)c(C)c1` (stereo unspecified), which Potency is on record?
**A.** inconclusive: 28.2 µM [inhibitor, partial curve, poor fit]

**Q.** `O=C(Nc1ccc2c(c1)N(C1CCCC1)C(=O)c1ccccc1S2)c1ccc(F)cc1` was tested. Which Potency did it give?
**A.** inconclusive: 14.1 µM [inhibitor, partial curve, poor fit]

**Q.** For `COCc1cn2c(=O)n(C)cc(-c3ccnc(OC)c3)c2n1`, which Potency is on record?
**A.** active: 31.6 µM

**Q.** How did the Potency turn out when `COCCNc1ncccc1-c1noc([C@@H]2CCCN2Cc2ccc3c(c2)OCO3)n1` was run?
**A.** active: 31.6 µM

**Q.** How did the Potency turn out when `COc1cc(CCC(=O)NCc2cccs2)cc(OC)c1OC` was run?
**A.** inactive

**Q.** For `C=Cc1ccc(Cn2c(=O)n(-c3cccc(C)c3)c(=O)c3c2c2cc(C)ccc2n3C)cc1`, which Potency is on record?
**A.** inconclusive: 11.2 µM [inhibitor, partial curve, poor fit]

**Q.** How did the Potency turn out when `CCc1cc(=O)n(CC(=O)Nc2cc(OC)ccc2OC)c(-c2cccc(F)c2)n1` was run?
**A.** inactive

**Q.** For `Cc1sc2ncnc(N3CCOCC3)c2c1-c1ccc(F)cc1`, which Potency is on record?
**A.** inactive

**Q.** Which Potency does the source give for `COc1ccc(C(=O)NCc2nnc3ccc(-c4ccc(F)cc4)nn23)c(OC)c1` here?
**A.** inconclusive: 39.8 µM [inhibitor, single point]
